Each structure is given as a SMILES string. Hit rate of the full screen: of about 52,000 compounds, about 1,700 (3.3%) were called active. Rule as the data show it: active = survival mostly below about 52% (no sharp cut-off); inactive = mostly above about 56%. This is one part of the list.

In the experiment the test system is Wild type. Briefly: S. aureus survival, RN4220 and DeltatarO strains – OD600, teichoic acid synthesis inhibitors, primary screen (AID 463173). The following applies: S. aureus RN4220 wild type/DeltatarO growth, OD600, 18 h, active compounds read low, screened at 18.75 µg/mL (by protocol).
In the case of `O=C(CN1C=NS(=O)(=O)c2ccc(C(F)(F)F)cc21)Nc1cccc(C(F)(F)F)c1`, the survival is inactive: 76%.
The result for `COc1ccc(Nc2c3c(nc4ccc(NC(=O)/C=C/c5cccc(OC)c5OC)cc24)CCCC3)cc1OC` reads inactive: 78%.
The result for `CCOC(=O)c1cc(NC(=O)c2ccc(Cl)cc2)c(=O)n2c1oc1ccccc12` reads inactive: 65%; that for `CC(=O)NC1C(=O)N(CCc2ccccc2)c2ccc(C)cc21` (configuration not stated), inactive: 65%.
To `O=C(Nc1ccc(Br)cc1)c1cccc(C(=O)Nc2ccc(Br)cc2)c1` belongs inactive: 80%; to `O=S(=O)(c1ccc(Cl)cc1)c1nc(-c2ccccc2)oc1N1CCN(c2ccccc2)CC1`, inactive: 87%; to `Cc1cccc(C=Nc2ccc3[nH]ncc3c2)c1O`, inactive: 96%.
Take `CCc1nc(SCc2cc(=O)c3cc(C)ccc3[nH]2)n[nH]1`: the survival is inactive: 74%.
On to `CCc1cccc(NC(=O)CSc2nc3ccsc3c(=O)n2CC)c1`, for which the survival was inactive: 60%.
The result for `CCC(=O)Nc1ccc(Cl)cn1` reads inactive: 112%; that for `CCOc1ccc(C2CC(=O)c3c([nH]c(C(=O)OC4CCC(C)CC4)c3C)C2)cc1` (configuration not stated), inactive: 78%; that for `COc1ccccc1N1CCN(C(=O)CN2C(=O)COc3ccc(S(=O)(=O)N4CCCC4)cc32)CC1`, inactive: 130%.
`Cc1ccc(CN(Cc2cccn2-c2nnc(N3CCCC3=O)s2)C(=O)Nc2ccccc2C(F)(F)F)cc1`: the survival is inactive: 115%.
To `Cc1ccc(CNC(=O)Cn2c(=O)n(Cc3ccccc3)c(=O)c3sc4ccccc4c32)cc1` belongs inactive: 88%; to `CC(C)CCNC(=O)Nc1ccc2c(c1)N(Cc1ccccc1)C(=O)c1ccccc1S2`, inactive: 100%.
In the case of `CCc1ccc(NC(=O)Cc2c(C(=O)O)c(C)cn2C)cc1`, the survival was inactive: 76%.
For `Cc1ccccc1Nc1c(-c2ccc(Br)o2)nc2ccc(Cl)cn12`, the survival was active: 10%.
To `Cc1ccc(S(=O)(=O)CC(=O)Nc2sc3c(c2C(N)=O)CCCC3)cc1` belongs inactive: 87%.
To `Cc1ccc(NC(=O)CCN2CCN(CCO)CC2)cc1C` belongs inactive: 75%; to `COc1ccc(CCNC(=O)c2ccc3c(c2)N(Cc2ccc(Cl)cc2)C(=O)c2ccccc2S3)cc1OC`, inactive: 55%.
For the compound `CCOc1ccc(-c2nn(CC(=O)NC3CCCC3)c3c2cnc2ccc(C)cc23)cc1`, the survival was inactive: 81%.
In the case of `COc1cc(OC)c(NC(=O)c2cc(C)nc3c2c(C)nn3-c2ccc(C)cc2)cc1Cl`, the survival was inactive: 101%.
On to `CCN(Cc1nc(-c2ccc(OC)cc2)oc1C)S(=O)(=O)c1ccc(C)cc1`, for which the survival is inactive: 66%.
To `Cc1c(CCNC(=O)c2ccco2)sc2nc(-c3ccc(F)cc3)nn12` belongs inactive: 76%; to `Cc1ccc(NC(=O)CN2CCSc3ccc(S(=O)(=O)N4CCCC4)cc32)cc1`, inactive: 98%; to `CCc1ccc(Oc2c(C(F)(F)F)oc3c(CN4CCC(C)CC4)c(O)ccc3c2=O)cc1`, inactive: 86%.
Consider `CCCCN(CC)C(=O)c1cc2c(=O)n3cccc(C)c3nc2n1C`, for which the survival is inactive: 82%.
As to `CC(=O)c1ccc(NC(=O)Cn2c(-n3nc(C)cc3C)nc(C)c(C)c2=O)cc1`, the survival was inactive: 66%.
As to `CCN(CC)c1cc2c(cc1F)c(=O)c(S(=O)(=O)c1ccc(OC)cc1)cn2Cc1ccccc1`, the survival was inactive: 127%.
As to `CCOc1ccccc1Nc1nnc(-c2cc3cc(OC)ccc3oc2=O)s1`, the survival was inactive: 73%.
To `CCOC(=O)Cc1ccc(NC(=O)N2CCC(CN3CCCCCC3)CC2)cc1` belongs inactive: 59%.
The result for `COc1ccc(C(=O)N2CCC(C(=O)Nc3ccc(Cl)cc3)CC2)cc1` reads inactive: 122%; that for `COc1cccc(CSc2nc3n(n2)C(CC(C)C)C(C(=O)Nc2ccccc2OC)=C(C)N3)c1` (configuration not stated), inactive: 83%.
Regarding `CCCCN(CC)CCCNC(=O)Cn1ncc2c3ccccc3n(C)c2c1=O`, the survival is inactive: 123%.
To `CCOc1ccc(S(=O)(=O)N(CC(=O)NCc2ccccc2OC)c2ccccc2)cc1` belongs inactive: 58%; to `Cc1cc(=O)n2nc(N(C)CC(=O)NCc3cccc(Br)c3)sc2n1`, inactive: 88%; to `CCOc1ccc(OCC)c(NC(=O)Cn2nc(CC)n3c(cc4sccc43)c2=O)c1`, inactive: 89%.
Turning to `CC(C)/C(N)=N/OC(=O)c1ccc(I)cc1`, the survival was inactive: 104%.
Turning to `CCc1cccc(NC(=O)Cn2c(=O)n(CC(=O)NCCc3ccccc3)c(=O)c3ccccc32)c1`, the survival is inactive: 135%.
Take `CC(C)CCn1c(=O)c2sccc2n2c(CCCC(=O)NCCc3ccccc3)nnc12`: the survival is inactive: 83%.
To `O=C(NCCc1ccc(Cl)cc1)c1ccc(CS(=O)Cc2ccccc2Cl)o1` (configuration not stated) belongs inactive: 62%; to `COc1cccc(CNC(=O)c2oc3c(c2C)-c2nn(Cc4cccc(Cl)c4)cc2CC3)c1OC`, inactive: 73%.
The result for `COc1ccccc1C(=O)N1CCC(c2noc(-c3ccc(S(=O)(=O)N4CCCC4)cc3)n2)CC1` reads inactive: 92%; that for `CC(C)N(C)C1CCN(S(=O)(=O)c2ccc3[nH]c(=O)ccc3c2)CC1`, inactive: 47%.
As for `COc1ccc(NC(=O)Cn2c(SCc3ccc(F)cc3)nc3cccnc32)cc1OC`, the survival is inactive: 81%.
The result for `Cc1cccc(NC(=O)C2CCN(c3nc4ccccc4[nH]3)CC2)c1C` reads inactive: 71%; that for `COCC(=O)N1CCC(c2nc3ccccc3[nH]2)CC1`, inactive: 121%; that for `Cc1cc(C)cc(N2C(=O)CSC23C(=O)N(CC(=O)Nc2ccc(F)cc2F)c2ccccc23)c1` (configuration not stated), inactive: 78%.
The result for `O=C(Nc1ccc2nc(SCC(=O)N3CCCC3)sc2c1)c1cccc(Br)c1` reads inactive: 62%; that for `CCOC(=O)c1cnc2c(C(F)(F)F)cccc2c1Cl`, inactive: 136%; that for `Cc1ccc(C)c(CNC(=O)CCn2cccn2)c1`, inactive: 128%.
Regarding `CCN(CC)C(=O)c1csc(Nc2ccc(C)cc2)n1`, the survival is inactive: 111%.
To `CCOC(=O)c1oc2c(c1C)-c1nn(Cc3c(F)cccc3Cl)cc1CC2` belongs inactive: 64%; to `CCOCCCN1C(=O)c2[nH]nc(-c3ccccc3O)c2C1c1ccc(CC)cc1` (configuration not stated), inactive: 63%.
To `CCCCc1nn2c(=O)cc(COC(=O)c3ccc(NC(=O)CCc4ccccc4)cc3)nc2s1` belongs inactive: 89%; to `Cc1ccc(NC(=O)C2CC(=O)n3cnnc3N2)cc1Cl` (configuration not stated), inactive: 105%.
The result for `CCCc1ccc(-c2ccc(C(=O)Oc3ccc(OCC)cc3)cc2)nc1` reads inactive: 67%.

Source of the values: PubChem BioAssay AID463173 (ICCB-Longwood Screening Facility, Harvard Medical School, 2010).
